# About 2,200 (0.71%) of roughly 310,000 compounds showed an effect of 50% or more. The effect is printed as a negative number. Some of the results follow.
# Molecular target: human ether-à-go-go-related gene (hERG) potassium channel (human, UniProt Q12809)
# Test: primary screen, population patch clamp on CHO cells stably expressing hERG
# human ether-à-go-go-related gene (hERG) potassium channel, sequence (Q12809 whole entry, looked up): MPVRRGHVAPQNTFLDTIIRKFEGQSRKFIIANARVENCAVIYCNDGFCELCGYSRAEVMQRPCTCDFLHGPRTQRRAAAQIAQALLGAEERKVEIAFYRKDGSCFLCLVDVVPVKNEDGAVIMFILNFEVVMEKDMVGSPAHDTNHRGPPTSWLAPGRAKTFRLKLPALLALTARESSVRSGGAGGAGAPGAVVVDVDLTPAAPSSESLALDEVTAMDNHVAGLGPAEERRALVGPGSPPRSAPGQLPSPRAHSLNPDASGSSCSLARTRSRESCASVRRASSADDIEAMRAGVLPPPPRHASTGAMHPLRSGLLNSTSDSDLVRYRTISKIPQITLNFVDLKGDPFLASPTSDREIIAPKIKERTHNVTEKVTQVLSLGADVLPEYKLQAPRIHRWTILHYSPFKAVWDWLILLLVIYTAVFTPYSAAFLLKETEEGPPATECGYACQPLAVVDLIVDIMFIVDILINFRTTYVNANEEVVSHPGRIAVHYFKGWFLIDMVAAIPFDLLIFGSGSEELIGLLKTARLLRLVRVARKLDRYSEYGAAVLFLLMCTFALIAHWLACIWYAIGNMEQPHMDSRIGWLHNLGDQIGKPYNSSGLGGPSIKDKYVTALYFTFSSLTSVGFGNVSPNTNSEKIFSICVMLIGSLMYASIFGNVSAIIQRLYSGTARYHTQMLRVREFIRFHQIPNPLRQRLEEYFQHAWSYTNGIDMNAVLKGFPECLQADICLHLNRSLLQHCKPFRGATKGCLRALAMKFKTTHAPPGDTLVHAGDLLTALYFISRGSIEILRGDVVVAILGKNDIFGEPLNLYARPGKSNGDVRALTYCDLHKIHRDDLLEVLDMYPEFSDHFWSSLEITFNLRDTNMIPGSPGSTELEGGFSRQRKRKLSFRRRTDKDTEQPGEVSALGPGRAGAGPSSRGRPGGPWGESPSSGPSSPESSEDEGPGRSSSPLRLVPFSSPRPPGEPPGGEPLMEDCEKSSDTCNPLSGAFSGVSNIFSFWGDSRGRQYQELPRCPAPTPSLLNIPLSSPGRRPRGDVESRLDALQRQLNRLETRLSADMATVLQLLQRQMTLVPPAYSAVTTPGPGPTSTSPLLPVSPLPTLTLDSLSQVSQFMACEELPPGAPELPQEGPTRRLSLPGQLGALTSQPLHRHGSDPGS
row,Compound,"hERG current change (%, negative = inhibition) at 1uM [%]"
1,CC(=O)Nc1ccccc1OC(C)C(=O)N1CCC(C)CC1 (centres unmarked),13.4
2,COc1ccc(C(=O)Nc2ccc(Nc3ccccc3)cc2)cc1[N+](=O)[O-],-1.73
3,COc1ccc(NC(=O)c2cc(S(=O)(=O)N3CCc4ccccc43)cn2C)c(OC)c1,4.11
4,Cc1nc2ccccc2c2oc(C(=O)N3CCCC(C)C3)cc12 (centres unmarked),8.54
5,CCc1cc2cc(C)cc(C)c2nc1SCC(=O)NNC(=O)c1ccco1,8.74
6,Cc1ccc(-c2cnc(SCCNC(=O)c3ccco3)[nH]2)cc1,-5.7
7,COc1ccc(-c2nc(-c3ccc(NC(=O)c4ccncc4)cc3)no2)cc1OC,11.1
8,COC(=O)c1ccc(CNC(=O)c2cc3ccccc3oc2=O)cc1,8.93
9,COCCn1c(SCC(=O)Nc2ccc(C(C)=O)cc2)nc2c([nH]c3ccccc32)c1=O,7.76
10,NC(=O)C1CCN(C(=O)/C=C/c2cccc(Br)c2)CC1,-1.73
11,COc1cccc(-c2nnn(CC(=O)NC3CCCC3)n2)c1OC,14.6
12,O=C(NCc1ccco1)C(c1ccncc1)N(CCC1=CCCCC1)C(=O)Cn1nnc2ccccc21 (centres unmarked),2.4
13,O=C1CSc2ccc(C(=O)NCCC3=CCCCC3)cc2N1,10.9
14,COc1cc(-c2nnco2)cc(OC)c1OC,8.53
15,O=C(C1CCC(CNS(=O)(=O)c2cccc3cccnc23)CC1)N1CCc2ccccc21 (centres unmarked),1.06
16,NS(=O)(=O)c1ccc(CCNC(=O)CSc2ccc(Cl)cc2Cl)cc1,-2.3
17,C=CCc1ccc(OCCN2CCc3ccccc3C2)c(OC)c1.O=C(O)C(=O)O,-42.9
18,COC(=O)CC(NC(=S)NC(=O)c1ccccc1)c1ccc(Br)cc1 (centres unmarked),13
19,COc1ccccc1NC(=O)CCNC(=O)c1ccc(C)cc1,12.2
20,CCOC(=O)C1CCN(C(=O)CNC(=O)c2nn(-c3ccc(OC)cc3)c(=O)c3ccccc23)CC1,14.2
21,O=C(CSCCO)Nc1ccc(C23CC4CC(CC(C4)C2)C3)cc1,6.38
22,Cn1c(-c2ccc(F)cc2)cnc1SCC(=O)NNC(=O)Cc1ccccc1,3

row,Compound,"hERG current change (%, negative = inhibition) at 1uM [%]"
1,CCc1ccc(CNC(=O)C2CCCN(S(=O)(=O)N3CC(C)CC(C)C3)C2)cc1 (centres unmarked),17.9
2,CCCCCCCCSc1nnc(/N=C/N(C)C)s1,11.3
3,O=C(CN1CCCCC1)Nc1ccc(S(=O)(=O)NC2CCCCC2)cc1,-4.49
4,Cc1c(CC(=O)NCC(=O)O)c(=O)oc2cc3occ(-c4ccccc4)c3cc12,12.1
5,COC(=O)c1sccc1NC(=O)Nc1ccccc1Cl,10.1
6,CN(C(=O)CSc1nc2c(cnn2-c2ccccc2)c(=O)[nH]1)C1CCS(=O)(=O)C1 (centres unmarked),11.9
7,COC(=O)c1cc(OC)c(OC)cc1NC(=O)CN1CCOCC1,5.07
8,COc1ccc(N2CCN(CC(=O)c3ccc(O)c(C)c3O)CC2)cc1,21.2
9,COc1cc(/C=N/O)cc(Br)c1OCc1cccc(Cl)c1,7.32
10,COc1cc(NC(=O)CN(C)CCOc2ccccc2)c(C)cc1[N+](=O)[O-],7.87
11,O=C(Nc1cccc([N+](=O)[O-])c1)C(=O)N1CCCCC1,12
12,Cc1cc(C)nc(NS(=O)(=O)c2ccc(NC(=O)CN3C(=O)c4ccccc4C3=O)cc2)n1,4.01
13,Clc1ccc2oc(-c3cccnc3NCc3ccccc3)nc2c1,-7.92
14,O=C(Nc1cc(S(=O)(=O)N2CCOCC2)ccc1-n1cncn1)c1ccc(Cl)cc1,-34.6
15,O=C(NCC1CCCO1)Nc1ccccc1 (centres unmarked),3.62
16,CC(=O)C1=C(O)C(=O)N(CCc2c[nH]c3ccccc23)C1c1ccco1 (centres unmarked),10.4
17,Fc1ccccc1/C=N/Nc1nc(-c2ccccn2)nc2ccccc12,15.4
18,COc1ccc(-c2cc(C)no2)cc1S(=O)(=O)NCCc1ccco1,0.782
19,COc1cccc(C2c3[nH]c4ccccc4c3C[C@H]3C(=O)N(c4ccccc4C(=O)N4CCC(C(=O)O)CC4)C(=O)N23)c1 (some centres unmarked),3.33
20,O=[N+]([O-])c1ccccc1CSc1nnc2ccccn12,7.6
21,CS(=O)(=O)N(CC(=O)N1CCN(c2ccccc2)CC1)c1cc(C(F)(F)F)ccc1Cl,-8.42
22,CC(C)C[C@H](NC(=O)N1CC(=O)Nc2ccccc21)C(=O)N[C@@H](Cc1ccccc1)C(=O)O,11.6
